Test results taken from article PMC4336329 (PLoS ONE, 2015).
The campaign covered roughly 310,000 compounds. About 14,000 (4.5%) showed an effect of 50% or more. The effect is printed as a negative number. The list shows a part of the results.

These compounds were tested against human ether-à-go-go-related gene (hERG) potassium channel (human, UniProt Q12809) (assay: primary screen, population patch clamp on CHO cells stably expressing hERG).
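Also: peak tail current of the secondary pulse compared with the same well before compound.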

Sequence of human ether-à-go-go-related gene (hERG) potassium channel (Q12809 whole entry, looked up): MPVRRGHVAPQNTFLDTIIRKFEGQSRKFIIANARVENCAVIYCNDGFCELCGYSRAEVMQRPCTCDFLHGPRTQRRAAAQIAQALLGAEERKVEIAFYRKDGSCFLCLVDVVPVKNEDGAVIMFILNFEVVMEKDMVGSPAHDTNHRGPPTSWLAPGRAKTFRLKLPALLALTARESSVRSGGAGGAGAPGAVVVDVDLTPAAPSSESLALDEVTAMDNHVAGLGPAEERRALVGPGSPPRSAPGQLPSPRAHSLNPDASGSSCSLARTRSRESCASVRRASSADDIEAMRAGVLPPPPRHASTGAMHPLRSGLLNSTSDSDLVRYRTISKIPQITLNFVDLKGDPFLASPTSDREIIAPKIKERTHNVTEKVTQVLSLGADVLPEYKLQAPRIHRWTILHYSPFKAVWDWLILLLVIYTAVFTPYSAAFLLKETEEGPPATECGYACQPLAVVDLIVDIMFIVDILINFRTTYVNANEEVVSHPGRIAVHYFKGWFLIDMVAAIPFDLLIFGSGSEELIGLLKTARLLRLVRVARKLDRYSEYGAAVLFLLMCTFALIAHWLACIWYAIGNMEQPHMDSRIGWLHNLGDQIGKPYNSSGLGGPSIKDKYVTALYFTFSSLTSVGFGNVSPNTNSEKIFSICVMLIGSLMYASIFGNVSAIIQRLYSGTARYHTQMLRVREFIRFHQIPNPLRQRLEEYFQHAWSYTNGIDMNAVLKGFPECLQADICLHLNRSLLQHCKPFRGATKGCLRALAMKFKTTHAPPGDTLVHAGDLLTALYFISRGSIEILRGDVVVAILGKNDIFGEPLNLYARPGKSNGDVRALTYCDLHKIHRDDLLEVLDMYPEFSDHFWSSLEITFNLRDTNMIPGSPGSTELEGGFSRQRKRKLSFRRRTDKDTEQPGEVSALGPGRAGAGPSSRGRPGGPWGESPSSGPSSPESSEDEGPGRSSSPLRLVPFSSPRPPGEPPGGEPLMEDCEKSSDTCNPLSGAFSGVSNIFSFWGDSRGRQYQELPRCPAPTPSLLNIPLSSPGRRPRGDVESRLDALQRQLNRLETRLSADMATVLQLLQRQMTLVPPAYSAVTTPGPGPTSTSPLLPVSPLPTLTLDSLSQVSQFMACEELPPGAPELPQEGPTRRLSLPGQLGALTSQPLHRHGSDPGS

Row | Compound | hERG current change (%, negative = inhibition) at 10uM [%]
1 | O=C(Cn1nnc2ccccc21)c1ccc([N+](=O)[O-])cc1 | -32.9
2 | COCCNC(=S)N(CCc1c(C)[nH]c2ccc(C)cc12)Cc1cccnc1 | -7.49
3 | C=CCOn1c(=O)c(C)[n+]([O-])c2ccccc21 | 5.15
4 | CCN(C(=O)COC(=O)c1cccc(S(=O)(=O)N(CC)CC)c1)C1CCS(=O)(=O)C1 (centres unmarked) | 10.3
5 | CCOC(=O)c1c(C)n(OC)c2ccc3c(no[n+]3[O-])c12 | -1.2
6 | Cc1ccc(C2(C)NC(=O)N(CC(=O)NCc3cccc(Cl)c3)C2=O)cc1 (centres unmarked) | -7.12
7 | O=C(Nc1ccccc1N1CCCC1)c1cccc(F)c1 | 6.24
8 | O=C(Nc1ccc(Cl)cc1)C1CCN(C(=O)NC2CCCCC2)CC1 | 3.65
9 | Cc1ccc(O)c(Nc2ncnc3ccc([N+](=O)[O-])cc23)c1.Cl | 13.6
10 | O=C(C1CCN(c2ccc(N3CCOCC3)nn2)CC1)N1CCc2ccccc2C1 | -18.5
11 | O=C(c1cc(F)c(F)cc1Cl)N1CCCCC1 | -27.5
12 | CC1=CC2=NC(=O)CC(C)(C(=O)N(CC(=O)NC(C)(C)C)Cc3ccccc3)N2C=C1 (centres unmarked) | 29.8
13 | COc1cc(/C=C(\C#N)C(=O)N2CCc3ccccc32)ccc1O | -28.9
14 | Nn1c(SCC(=O)Nc2ccccc2F)nnc1-c1cccnc1 | 28.5
15 | CS(=O)(=O)N(CCc1ccccc1)CC(=O)N1CCN(c2ccccc2F)CC1 | -3.17
16 | CC(=Nc1ccc(C)c(C)c1)C1=C(O)CCC1=O | 11.3
17 | CCOc1ccc2nc(NCCNC(=O)C3CC3)c(C)cc2c1 | -63.7
18 | COc1cc(C(=O)Nc2ccc(S(=O)(=O)NC(C)C)cc2)cc(OC)c1OC | -2.49
19 | Cc1ccc(/C=c2/sc3n(c2=O)CCCN=3)o1 | -4.65
20 | O=[N+]([O-])c1cccc(-c2nc(-c3cccs3)c(-c3cccs3)[nH]2)c1 | 5.61
21 | Cc1cc(C)cc(SCc2noc(C(=O)NCC3CC3)c2C(=O)NCC2CC2)c1 | -2.39
22 | COc1ccc(S(=O)(=O)N(CC(=O)NCc2cccnc2)C2CCCCC2)cc1OC | -12.7

Row | Compound | hERG current change (%, negative = inhibition) at 10uM [%]
23 | CN(Cc1ccc(Cl)cc1Cl)C(=O)CCNC(=O)c1ccco1 | -18.2
24 | CCCn1nnc(NC(=O)c2cc(Br)ccc2OC)n1 | -10.4
25 | Cc1cc(Cl)c(S(=O)(=O)NCC2CCCO2)cc1OCC(N)=O (centres unmarked) | 4.47
26 | CSc1ccccc1NC(=O)CCn1c(=O)oc2ccccc21 | 14.5
27 | CC1CCCCC1NC(=O)C1CCC(CNS(=O)(=O)c2cccc3cccnc23)CC1 (centres unmarked) | 28.8
28 | Cc1ccc(NC(=S)N2CCCCCC2)cc1 | 11.7
29 | CN(C)S(=O)(=O)c1ccc2c(c1)/C(=C/c1cc3c([nH]1)CCCC3)C(=O)N2 | -4.62
30 | CCOCCc1nnc(NC(=O)CCS(=O)(=O)c2ccccc2)s1 | 21.8
31 | COCCN(C(=O)CNC(=O)c1ccco1)C(C(=O)NC1CCCCC1)c1cccs1 (centres unmarked) | 6.41
32 | COc1ccccc1N1CCN(/N=C\c2ccc(C)o2)CC1 | 9.7
33 | COc1cc2c(cc1OC)C(C(=O)NCc1ccco1)C(c1cccs1)N(C)C2=O (centres unmarked) | -6.5
34 | O=C1C2CCCN2C(c2cccnc2)N1c1ccc(Cl)c(Cl)c1 (centres unmarked) | 9.27
35 | CCCCN(C(=O)c1cc2c(s1)CCC2)c1c(N)n(CC(C)C)c(=O)[nH]c1=O | 2.41
36 | CN1C(=O)SC(Nc2cccc3ccccc23)C1=O (centres unmarked) | 4.57
37 | Cc1ccc(NC(=O)c2cc(NC(=O)CCC(=O)O)ccc2N2CCCCC2)cc1 | 4.21
38 | Cc1cc(=O)[nH]c(SCc2cccc3ccccc23)n1 | 22
39 | CCOC(=O)c1ccc(N/C(=N/S(=O)(=O)c2ccccc2)c2ccccc2)cc1 | -36.2
40 | CCOc1ccc(S(=O)(=O)N2CC(=O)Nc3ccccc32)cc1C#N | -23.3
41 | CN(CC(=O)N1CCN(c2ncccn2)CC1)S(=O)(=O)c1ccc(Cl)cc1 | -42.9
42 | Cc1ccc(C(=O)c2ccc([N+](=O)[O-])cc2)cc1 | 2.86
43 | CCC(C)NCCCOc1c(C)cc(C)cc1Br.O=C(O)C(=O)O (centres unmarked) | -38.4
44 | Cc1ccc(Nc2nc(CSc3nnnn3-c3ccccc3)cs2)cc1 | 14.7
